According to article PMC5700166:
This is a selection; strong and weak results do not stand in their true shares. The list includes weakly bound sequences.

biological target: T1, GST-Dm-Relish (UniProt Q94527); experiment: protein-binding microarray (PBM); details: PBM: ~300 nM protein, 6 mM HEPES pH 7.8, 80 mM KCl, 0.5 mM EDTA, 0.5 mM EGTA, 6% glycerol, 35 ng/ul poly-dIdC, 1% milk, 1 h, room temperature; Ap Aiptasia and Nv Nematostella (sea anemones) / Co Capsaspora / Aq Amphimedon (sponge) / Dm Drosophila / Hu human; RHD is the Rel homology domain; high values mean tight binding; most listed sequences are background and not binding sites; double strand, one strand shown
T1 sequence: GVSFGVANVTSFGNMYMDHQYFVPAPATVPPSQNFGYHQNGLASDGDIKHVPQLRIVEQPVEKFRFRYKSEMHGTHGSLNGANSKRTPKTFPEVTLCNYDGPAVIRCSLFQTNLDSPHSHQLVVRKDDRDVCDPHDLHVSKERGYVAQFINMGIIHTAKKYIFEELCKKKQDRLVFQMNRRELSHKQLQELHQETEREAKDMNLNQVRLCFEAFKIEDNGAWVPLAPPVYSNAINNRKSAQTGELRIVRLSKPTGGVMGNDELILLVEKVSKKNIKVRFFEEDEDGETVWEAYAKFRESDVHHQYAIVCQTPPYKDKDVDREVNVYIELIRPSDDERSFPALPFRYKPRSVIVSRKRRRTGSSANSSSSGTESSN

Sequence	binding signal [z-score]
CCGATTAACATCAGGGGATCCCATGATGTTAATCGGGTCTTGATTCGCTTGACGCTGCTG	10
CCGATTAACATCAGGAGGTTCCCTGATGTTAATCGGGTCTTGATTCGCTTGACGCTGCTG	2.47
CCGATTAACATCAGGGGGAATACTGATGTTAATCGGGTCTTGATTCGCTTGACGCTGCTG	7.69
CCGATTAACATCAGCACGGGAAATGATGTTAATCGGGTCTTGATTCGCTTGACGCTGCTG	0.327
CCGATTAACATCACTTTTTTCCCTGATGTTAATCGGGTCTTGATTCGCTTGACGCTGCTG	2.28
CCGATTAACATCAGATTTCTCCCTGATGTTAATCGGGTCTTGATTCGCTTGACGCTGCTG	0.504
CCGATTAACATCACGGAAATACCTGATGTTAATCGGGTCTTGATTCGCTTGACGCTGCTG	2.56
CCGATTAACATCAGGGGAAGTACTGATGTTAATCGGGTCTTGATTCGCTTGACGCTGCTG	10.7
CCGATTAACATCAGGAACCCCCATGATGTTAATCGGGTCTTGATTCGCTTGACGCTGCTG	9.25
CCGATTAACATCAAAACCCCCCTTGATGTTAATCGGGTCTTGATTCGCTTGACGCTGCTG	10.5
CCGATTAACATCAGGGCCCCCCCTGATGTTAATCGGGTCTTGATTCGCTTGACGCTGCTG	6.49
CCGATTAACATCAGGGGTCAGTATGATGTTAATCGGGTCTTGATTCGCTTGACGCTGCTG	0.646
CCGATTAACATCAAGGGAACCCCTGATGTTAATCGGGTCTTGATTCGCTTGACGCTGCTG	9.38
CCGATTAACATCAGGGAAGTCCATGATGTTAATCGGGTCTTGATTCGCTTGACGCTGCTG	7.44
CCGATTAACATCACAAACTTCCCTGATGTTAATCGGGTCTTGATTCGCTTGACGCTGCTG	3.48
CCGATTAACATCAGAAAAGTACCTGATGTTAATCGGGTCTTGATTCGCTTGACGCTGCTG	8.45
CCGATTAACATCACGGAAACACCTGATGTTAATCGGGTCTTGATTCGCTTGACGCTGCTG	1.78
CCGATTAACATCAAAAGATCCCCTGATGTTAATCGGGTCTTGATTCGCTTGACGCTGCTG	9.75
CCGATTAACATCACGTTTTCCCCTGATGTTAATCGGGTCTTGATTCGCTTGACGCTGCTG	4.49
CCGATTAACATCACAACTTTCCCTGATGTTAATCGGGTCTTGATTCGCTTGACGCTGCTG	2.04

Sequence	binding signal [z-score]
CCGATTAACATCAGAAATCTCCCTGATGTTAATCGGGTCTTGATTCGCTTGACGCTGCTG	1.79
CCGATTAACATCAGGGGATTATATGATGTTAATCGGGTCTTGATTCGCTTGACGCTGCTG	6.72
CCGATTAACATCAGGGGGAGAGATGATGTTAATCGGGTCTTGATTCGCTTGACGCTGCTG	1.45
CCGATTAACATCAGATATTTCCCTGATGTTAATCGGGTCTTGATTCGCTTGACGCTGCTG	2.31
CCGATTAACATCAGGACTTGCCCTGATGTTAATCGGGTCTTGATTCGCTTGACGCTGCTG	-0.096
CCGATTAACATCAGGCGAACCCCTGATGTTAATCGGGTCTTGATTCGCTTGACGCTGCTG	1.37
CCGATTAACATCAATGGGTTTTCTGATGTTAATCGGGTCTTGATTCGCTTGACGCTGCTG	2.88
CCGATTAACATCAAGACTCCCCCTGATGTTAATCGGGTCTTGATTCGCTTGACGCTGCTG	4.5
CCGATTAACATCAGGGACCCCCCTGATGTTAATCGGGTCTTGATTCGCTTGACGCTGCTG	9.78
CCGATTAACATCAGGGGGTTTCATGATGTTAATCGGGTCTTGATTCGCTTGACGCTGCTG	8.76
CCGATTAACATCAAATTTTCCCATGATGTTAATCGGGTCTTGATTCGCTTGACGCTGCTG	1.94
CCGATTAACATCAGGTCGGGAAATGATGTTAATCGGGTCTTGATTCGCTTGACGCTGCTG	0.39
CCGATTAACATCAGGAACGCCCCTGATGTTAATCGGGTCTTGATTCGCTTGACGCTGCTG	2.09
CCGATTAACATCAGGAGAGTACCTGATGTTAATCGGGTCTTGATTCGCTTGACGCTGCTG	2.54
CCGATTAACATCAGGAGAATCCCTGATGTTAATCGGGTCTTGATTCGCTTGACGCTGCTG	4.39
CCGATTAACATCAAAACCCCCCATGATGTTAATCGGGTCTTGATTCGCTTGACGCTGCTG	9.53
CCGATTAACATCAGGCAGTTCCCTGATGTTAATCGGGTCTTGATTCGCTTGACGCTGCTG	0.202
CCGATTAACATCAGAAATTTACCTGATGTTAATCGGGTCTTGATTCGCTTGACGCTGCTG	2.77
CCGATTAACATCAGGACACCCCATGATGTTAATCGGGTCTTGATTCGCTTGACGCTGCTG	1.93
CCGATTAACATCAGATATCCCCCTGATGTTAATCGGGTCTTGATTCGCTTGACGCTGCTG	5.78
